Data reported in paper PMC6516834, “Tight bending of the Ndc80 complex provides intrinsic regulation of its binding to microtubules” (eLife, 2019).

Molecular target: taxol-stabilized microtubules (bovine brain tubulin) (bovine, UniProt Q6B856)
Assay: single molecule TIRF microscopy (residence time on microtubules); fluorescent complexes in solution on taxol-stabilized microtubules; standard BRB80 buffer; mean residence time, error by bootstrapping
Conditions: both partners purified

B1: Broccoli-GFP (shortened dimeric construct, Ndc80 […] / Nuf2 […] with GFP fused C-terminally to Nuf2) (complex)
chain 1: [about 550 residues left out]
chain 2: MSRNQDVFPILDLQELVICLQSCDFALATQENISRPTSDYMVTLYKQIIENFMGISVESLLNSSNQETGDGHLQEENENIYLDTLNVLVLNKICFKFFENIGVQDFNMTDLYKPEAQRTQRLLSAVVNYARFREERMFDCNSFILQMESLLGQLRSKFDDYNLIQQQLKQYEDVDGDNIPDEQELQKLEEQNKELEIQLKKLTKIQETLSIDYNDYKISKQSIFKDLEALSFQIVELESNRDKLIKISNTDMEELSEGIKELNDLLIQRKKTLDDLTAQQKNLQDTVTTFETIISELYDVLRIISSEVQESNRTETELVGLKQNLINNKLKLMNVLETG
notes: Ndc80, S. cerevisiae, […] (C-terminus removed); Nuf2, S. cerevisiae, […] (C-terminus removed); also called […]/Nuf2-GFP; Ndc80/Nuf2; source: E. coli BL21, purified (Ni-charged IMAC resin, size exclusion chromatography); not shown: GFP, C-terminal, kept
mean residence time on microtubules: 5.6 s
